This is one part of the list. Many values rest on one well or one pass, so single values are uncertain.
Legend:
Assay in all cases: cell count relative to DMSO control; melanoma cells; higher = more viable cells
Settings in all cases: library dose: standard library concentration; 72 h
G361 = system: G361
IPC-298 = system: IPC-298
IST-MEL1 = system: IST-MEL1
LB2518-MEL = system: LB2518-MEL
LOXIMVI = system: LOXIMVI
MEL-HO = system: MEL-HO
MZ2-MEL = system: MZ2-MEL
MeWo = system: MeWo
RPMI7951 = system: RPMI7951
RVH-421 = system: RVH-421
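Note: cells treated in 1,536-well plates, then fixed and DAPI-stained, with nuclei counted from automated high-throughput microscope images.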

SMILES | cell count (G361) [%] | cell count (IPC-298) [%] | cell count (IST-MEL1) [%] | cell count (LB2518-MEL) [%] | cell count (LOXIMVI) [%] | cell count (MEL-HO) [%] | cell count (MZ2-MEL) [%] | cell count (MeWo) [%] | cell count (RPMI7951) [%] | cell count (RVH-421) [%]
C[C@]1(c2nc3c(C(N)=O)cccc3[nH]2)CCCN1 [Veliparib] + OCCn1cc(-c2cnc3nnn(Cc4ccc5ncccc5c4)c3n2)cn1 [PF04217903] (first compound 7 µM, partner dose 5 µM) | 93.4 | 115 | 97.7 | 87.3 | 77.4 | 104 | 123 | 113 | 81.3 | 84.6
NCC(=O)Nc1ccc(-n2nc(C(F)(F)F)cc2-c2ccc3c(ccc4ccccc43)c2)cc1 + COc1cc(N2CCC(N3CCN(C)CC3)CC2)ccc1Nc1ncc(Cl)c(Nc2ccccc2S(=O)(=O)C(C)C)n1 [NVP-TAE684] (first compound 5 µM, partner dose 0.4 µM) | 74.2 | 66.1 | 87.3 | – | 84.9 | 93 | – | 54.6 | 80.3 | 79.1
C[C@]1(c2nc3c(C(N)=O)cccc3[nH]2)CCCN1 [Veliparib] + O=c1cc(-c2cccc3c2Sc2ccccc2S3)oc(N2CCOCC2)c1 [KU55933] (first compound 7 µM, partner dose 5 µM) | 83 | 94.2 | 107 | – | 94.2 | 83.4 | – | 76.9 | 92.3 | 73.7
NC(=O)Nc1cc(-c2cccc(F)c2)sc1C(=O)N[C@H]1CCCNC1 + N#Cc1c(O)c2c(-c3ccc(-c4ccccc4O)cc3)csc2[nH]c1=O [A769662] (first compound 0.1 µM, partner dose 10 µM) | 88.9 | 89.2 | 98.7 | – | 103 | 81 | – | 73.3 | 46.3 | 116
Cc1nc(Nc2ncc(C(=O)Nc3c(C)cccc3Cl)s2)cc(N2CCN(CCO)CC2)n1 [dasatanib] + NC(=O)Nc1cc(-c2cccc(F)c2)sc1C(=O)N[C@H]1CCCNC1 [AZD7762] (first compound 0.02 µM, partner dose 0.1 µM) | 76.4 | 76.6 | 58.8 | – | 10.4 | 64.2 | – | 51.3 | 19 | 69.2
OCCn1cc(-c2cnc3nnn(Cc4ccc5ncccc5c4)c3n2)cn1 + Oc1nc(-c2ccc(C(F)(F)F)cc2)nc2c1CSCC2 [XAV939] (first compound 5 µM, partner dose 10 µM) | 103 | 88.8 | 89.5 | 111 | 198 | 93.6 | 90.2 | 101 | 106 | 84.6
Cc1nc(Nc2ncc(C(=O)Nc3c(C)cccc3Cl)s2)cc(N2CCN(CCO)CC2)n1 [dasatanib] + Cn1cc(/C=C2\C(=O)Nc3cccnc32)c2ccccc21 [GW441756] (first compound 0.02 µM, partner dose 2 µM) | 77.4 | 79.2 | 75.3 | – | 28 | 79.7 | – | 91.6 | 35.2 | 84.7
CO[C@@H]1[C@H](N(C)C(=O)c2ccccc2)C[C@H]2O[C@]1(C)n1c3ccccc3c3c4c(c5c6ccccc6n2c5c31)C(=O)NC4 [Midostaurin] + Cn1cncc1[C@@](N)(c1ccc(Cl)cc1)c1ccc2c(c1)c(-c1cccc(Cl)c1)cc(=O)n2C [tipifarnib] (first compound 0.4 µM, partner dose 0.05 µM) | 42 | 46.2 | 63.1 | 65.2 | 51.7 | 69.9 | 52.3 | 70.6 | 41.2 | 71
